The list shows a part of the results.
T1: UNK ZnF1-3 (human, UniProt Q9C0B0 31-174)
T1 sequence: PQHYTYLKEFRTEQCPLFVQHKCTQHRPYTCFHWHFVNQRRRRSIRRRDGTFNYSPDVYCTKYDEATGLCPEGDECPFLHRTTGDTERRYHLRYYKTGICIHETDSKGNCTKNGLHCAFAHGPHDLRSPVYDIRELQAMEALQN

B1: chr6:146598974:146598975:+_ENSMUSG00000030291_ENSMUST00000032429|mus_hu|FALSE|FALSE (ssRNA)
RNA: GGGAGUUCUACAGUCCGACGAUCCUGAUUCAAUCAUGAUUUUAUAAGCUUAUCAAGAGUGAAAAUAGAAGACUAUUAAAAAUAGCUAAAAAGGUAAUGUGUCAUAGUGUUUAAUGUUUCUGUAAUUGUUGGUAAGGCUUGUAUCAACAGAGGAUUGAGCAUCA
B2: 18861418_18861648_5666_CDS_ENSG00000157106_ENST00000446231|human|control|control (ssRNA)
RNA: GGGAGUUCUACAGUCCGACGAUCCAGCCUAGGGUCAUCCUCAUCUAAAGGAAUUUGACCAGCGUUGAGUUUAAGGAAAGUAAAGUAUGCACUGCAAGAGAGUUUGUACAGGCUGAAUAUUCUAUCUACAACUUUCCUCCACACCAACAGAGGAUUGAGCAUCA
B3: chr8:74585381:74585382:-_ENSG00000040341_ENST00000355780|hu_hu|FALSE|FALSE (ssRNA)
RNA: GGGAGUUCUACAGUCCGACGAUCAGGCACUGGGCAAUGAUACCUCUGAUUGUACAUGCCCCGAAAGUUGUAAUUAGCUCUAUAAUUUGGGAAUGGCUUUGGAUCUAAUGGCCUGUAGAUGGCAGGCUCUCCCCUUUUCAUAGCCAACAGAGGAUUGAGCAUCA
B4: chr1:225611761:225611762:-_ENSG00000143815_ENST00000272163|hu_mus|hu_hu_hu_mus_True|78_78 (ssRNA)
RNA: GGGAGUUCUACAGUCCGACGAUCCCAGGCCAUCGGCCUCUGACCACUUCACCCUCAGCAAAUUUCCUACUUGGCAUUUUCUAAAAUUAGUCUGGCCGCGCUCCGGCGGGAACUCCAGCCACUCCAGGACAGUCACCAGCAGCCCAACAGAGGAUUGAGCAUCA
B5: 36909150_36920067_489_CDS_ENSMUSG00000024811_ENSMUST00000025729|mouse|control|control (ssRNA)
RNA: GGGAGUUCUACAGUCCGACGAUCACCGUUCUGAAGAAGAUAUUCAACUACAUCCUUCCGUCCAAAACCUGCGGCGAAGUGGAGCGGGGUGGACUUCCUGCCCGCCGUGUCGCGGCUGUUCACCUUCUCGGGCGUCACCAGCCUCAACAGAGGAUUGAGCAUCA
B6: chr12:67699843:67699844:+_ENSG00000111530_ENST00000544619|hu_hu|FALSE|FALSE (ssRNA)
RNA: GGGAGUUCUACAGUCCGACGAUCAAUAAACUGACCUACUACAGCUGGUCCCUCUUUAGGGCAUGCUCGAGUAAGGGCAGCUACACAUUUGGCAAUGGAAUAAUAAGACUGCUUAUGAGUAAGAGCUGUGCUCUGAGAGUAAACCAACAGAGGAUUGAGCAUCA
B7: 118343347_118343467_1556_CDS_ENSG00000118058_ENST00000534358|human|control|control (ssRNA)
RNA: GGGAGUUCUACAGUCCGACGAUCAUACCUUCUGCUUCUCCUAUCAUUACUCUCAUUUUCUGGGGACUGGGAAAUGGGCAGUGGAGGAUGAACUUCAGGGGUAUCGCUCCGCUCCUCAGGAAGUACCUGAAUCUCCUCAGAAGCCAACAGAGGAUUGAGCAUCA
B8: 108559751_108563533_1152_CDS_ENSMUSG00000032846_ENSMUST00000105097|mouse|control|control (ssRNA)
RNA: GGGAGUUCUACAGUCCGACGAUCGGCCCCAUUGGAGUCUCUCAUCUUCAACAUCUCCCGCACCUUUGCAAAGAGCAUGUUGAGCUGCUUUCCUGACCCGUGGUACCCUCCCUGGGAGAGGAACACUUUCACCUGUUCUUGCACCAACAGAGGAUUGAGCAUCA
B9: chr4:17845017:17845018:+_ENSG00000109805_ENST00000514176|hu_mus|hu_hu_hu_mus_False|88_98 (ssRNA)
RNA: GGGAGUUCUACAGUCCGACGAUCGCUCUCUUAACUUGAUCUUCAUUGAGAAAUUGGUGCAAGGUUAAGUUUACUUUUCUGUAGCGCAGCUGUUUUGGCUCGUCUGGGUAAUCUCAUCUUCAUUUCUGAUGGUGGUUCAUGAUCCAACAGAGGAUUGAGCAUCA
B10: 33609145_33623031_1095_CDS_ENSG00000100991_ENST00000252015|human|control|control (ssRNA)
RNA: GGGAGUUCUACAGUCCGACGAUCGAACACAAUGGAGGCUUGAUUGUGCUCUGACUCCUCAUUGGCCACUCGCAUCAGGGCAUCUAGCACCAAAGCAUUGUCUAGCCAUGUGUACCACUCUUCCAACUCCUGAAGGAAGCUGGCCAACAGAGGAUUGAGCAUCA
B11: chr2:216981417:216981418:+_ENSG00000079246_ENST00000392132|hu_hu|hu_hu_hu_mus_True|68_98 (ssRNA)
RNA: GGGAGUUCUACAGUCCGACGAUCCUGAUACUGGUCCCCACCAGAAAGGGCAUUAUCAGUGCCAUCUGUACCAAACAGGACUAACGCAAUCUCAUCUUUGCUCUCCGAAAAUACCUGUCGUUGGACAAACAUAGUCAUCACUUUCAACAGAGGAUUGAGCAUCA
B12: chr4:148551591:148551592:-_ENSMUSG00000063077_ENSMUST00000060537|mus_hu|mus_mus_mus_hu_False|1_8 (ssRNA)
RNA: GGGAGUUCUACAGUCCGACGAUCACCUGACAAAAUUAAAUAUCCCUGUAAAUUAGACAAUAAGCAGCAGGCAACAAAGUCUUUGCUUUGGAAUAUGUGCCAGGAAAAGUCAUCUUGUUUUUAGAUCACACCUUUCACAACCAUCAACAGAGGAUUGAGCAUCA
B13: 9406821_9406941_468_CDS_ENSG00000134077_ENST00000452837|human|control|control (ssRNA)
RNA: GGGAGUUCUACAGUCCGACGAUCUGAUGACCCAAGUUUCUCUCUGACUUCAUCUGCAGCUGUUUGCUCAAAGCCAGUAGGUACAGUGGCUCCAAUAGUGACUAGAAGCUCAGAUUCACUUCCGAGGUCACUUUCUGUCACUUGCAACAGAGGAUUGAGCAUCA
B14: 3040280_3040400_681_CDS_ENSG00000078246_ENST00000448120|human|control|control (ssRNA)
RNA: GGGAGUUCUACAGUCCGACGAUCAUUUUCUUCUUUUUCCAAGUACAUAUAGUAGGUGGGGAAGAGACCCCGAUCCAUUCCCCUUUUAUCCCGGAUUAUCCGACAUCUUACUGUGACACCUUGAGGGGCAGGACUAUACACAAACAACAGAGGAUUGAGCAUCA

What follows are binders tested against T1, UNK ZnF1-3 (assay: nsRBNS (natural sequence RNA bind-n-seq); RBNS binding buffer (assumed for nsRBNS): 25 mM Tris pH 7.5, 150 mM KCl, 3 mM MgCl2, 0.01% Triton X-100, 500 ug/ml BSA, 20 U/ml SUPERase-In, 4 C; UNK is unkempt and MSI1 is Musashi-1; names of the RNAs are library labels; protein concentration not given here; high values mean tight binding).

Binder | binding signal [enrichment R]
B1 | 2.18
B2 | 1.36
B3 | 0.929
B4 | 1.28
B5 | 0.71
B6 | 0.846
B7 | 1.1
B8 | 0.538
B9 | 0.427
B10 | 1.09
B11 | 0.885
B12 | 1.33
B13 | 0.351
B14 | 0.904
